Measured values from the supplement of paper PMC4604168 (melanoma cell lines).
Some of the results follow. Many values rest on one well or one pass, so single values are uncertain.

system: SkMel2; assay: cell count relative to DMSO control; melanoma cells; higher = more viable cells; settings: library dose: standard library concentration; 72 h
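Also: cells treated in 1,536-well plates, then fixed and DAPI-stained, with nuclei counted from automated high-throughput microscope images.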

Row | SMILES | cell count [%]
1 | O=C(CCCCCCC(=O)Nc1ccccc1)NO [vorinostat] + O=S(=O)(c1ccccc1)N(CC(F)(F)F)c1ccc(C(O)(C(F)(F)F)C(F)(F)F)cc1 [T0901317] (first compound 0.4 µM, partner dose 7 µM) | 64.3
2 | Nc1cccc2c1CN(C1CCC(=O)NC1=O)C2=O (centres undefined) [lenalidomide] + Cn1cncc1[C@@](N)(c1ccc(Cl)cc1)c1ccc2c(c1)c(-c1cccc(Cl)c1)cc(=O)n2C [tipifarnib] (first compound 5 µM, partner dose 0.05 µM) | 70.5
3 | COCC[n+]1c2c(n(Cc3cnccn3)c1C)C(=O)c1ccccc1C2=O + Cn1cncc1[C@@](N)(c1ccc(Cl)cc1)c1ccc2c(c1)c(-c1cccc(Cl)c1)cc(=O)n2C [tipifarnib] (first compound 0.002 µM, partner dose 0.05 µM) | 44.5
4 | Cn1c(Nc2ccc(C(F)(F)F)cc2)nc2cc(Oc3ccnc(-c4ncc(C(F)(F)F)[nH]4)c3)ccc21 + Oc1nc(-c2ccc(C(F)(F)F)cc2)nc2c1CSCC2 [XAV939] (first compound 0.4 µM, partner dose 10 µM) | 65.3
5 | Clc1ccc(Nc2nnc(Cc3ccncc3)c3ccccc23)cc1 [vatalanib] + C=CCn1c(=O)c2cnc(Nc3ccc(N4CCN(C)CC4)cc3)nc2n1-c1cccc(C(C)(C)O)n1 [MK1775] (first compound 10 µM, partner dose 0.1 µM) | 66.7
6 | OCc1c[nH]c2ccccc12 [Indole-3-carbinol] + C[C@@H]1CCN(C(=O)CC#N)C[C@@H]1N(C)c1ncnc2[nH]ccc12 [CP690550] (first compound 4 µM, partner dose 5 µM) | 97.6
7 | Cn1c(Nc2ccc(C(F)(F)F)cc2)nc2cc(Oc3ccnc(-c4ncc(C(F)(F)F)[nH]4)c3)ccc21 + Nc1cccc2c1CN(C1CCC(=O)NC1=O)C2=O [lenalidomide] (first compound 0.4 µM, partner dose 5 µM) | 51.8
8 | COCC[n+]1c2c(n(Cc3cnccn3)c1C)C(=O)c1ccccc1C2=O + O=C(O)C(=O)Nc1sc2c(c1C(=O)O)CCNC2 [TCS401] (first compound 0.002 µM, partner dose 8.33333 µM) | 38.3
9 | C#Cc1cccc(Nc2ncnc3cc(OCCOC)c(OCCOC)cc23)c1 [erlotinib] + O=C(Nc1cccc(Cl)c1)Nc1ncc(CCNc2ncnc3ccsc23)s1 [SNS314] (first compound 4 µM, partner dose 0.004 µM) | 65.2
10 | Cn1c(Nc2ccc(C(F)(F)F)cc2)nc2cc(Oc3ccnc(-c4ncc(C(F)(F)F)[nH]4)c3)ccc21 + COc1ccc2c(c1)CCC1C2CCC2(C)C(NCCCCCCN3C(=O)C=CC3=O)CCC12 [U73122] (first compound 0.4 µM, partner dose 2 µM) | 64.9
11 | Nc1cccc2c1CN(C1CCC(=O)NC1=O)C2=O (centres undefined) [lenalidomide] + O=S(=O)(c1ccccc1)N(CC(F)(F)F)c1ccc(C(O)(C(F)(F)F)C(F)(F)F)cc1 [T0901317] (first compound 5 µM, partner dose 7 µM) | 92.6
12 | OCc1c[nH]c2ccccc12 [Indole-3-carbinol] + O=C(CCCCCCC(=O)Nc1ccccc1)NO [vorinostat] (first compound 4 µM, partner dose 0.4 µM) | 92.8
13 | Nc1cccc2c1CN(C1CCC(=O)NC1=O)C2=O (centres undefined) [lenalidomide] + COc1ccc(COc2ccc(Cc3cnc(N)nc3N)cc2OC)cc1 [GW2580] (first compound 5 µM, partner dose 5 µM) | 82.6
14 | C#Cc1cccc(Nc2ncnc3cc(OCCOC)c(OCCOC)cc23)c1 [erlotinib] + COc1cc2ncnc(Nc3ccc(Oc4ccccc4)cc3)c2cc1OC [SrcI1] (first compound 4 µM, partner dose 10 µM) | 80.7
15 | OCc1c[nH]c2ccccc12 [Indole-3-carbinol] + CC1(C)NC(=O)N(c2ccc([N+](=O)[O-])c(C(F)(F)F)c2)C1=O [nilutamide] (first compound 4 µM, partner dose 5 µM) | 100
16 | OCc1c[nH]c2ccccc12 [Indole-3-carbinol] + CN(NC(=O)CC(=O)NN(C)C(=S)c1ccccc1)C(=S)c1ccccc1 [STA4783] (first compound 4 µM, partner dose 0.03 µM) | 65.2
17 | Clc1ccc(Nc2nnc(Cc3ccncc3)c3ccccc23)cc1 [vatalanib] + Cc1cc(N2CCOCC2)cc2[nH]c(-c3c(NC[C@@H](O)c4cccc(Cl)c4)cc[nH]c3=O)nc12 [BMS536924] (first compound 10 µM, partner dose 1 µM) | 85.1

Row | SMILES | cell count [%]
18 | O=C(CCCCCCC(=O)Nc1ccccc1)NO [vorinostat] + O=C(O)C(=O)Nc1sc2c(c1C(=O)O)CCNC2 [TCS401] (first compound 0.4 µM, partner dose 8.33333 µM) | 67.2
19 | Nc1cccc2c1CN(C1CCC(=O)NC1=O)C2=O (centres undefined) [lenalidomide] + CN(C)S(=O)(=O)c1ccc2c(c1)/C(=C/c1cc3c([nH]1)CCCC3)C(=O)N2 [SU6656] (first compound 5 µM, partner dose 2 µM) | 84.5
20 | Nc1cccc2c1CN(C1CCC(=O)NC1=O)C2=O (centres undefined) [lenalidomide] + COC(=O)c1sccc1S(=O)(=O)Nc1ccc(Nc2ccccc2)cc1OC [GSK0660] (first compound 5 µM, partner dose 5 µM) | 91.2
21 | Nc1cccc2c1CN(C1CCC(=O)NC1=O)C2=O (centres undefined) [lenalidomide] + N#Cc1c(O)c2c(-c3ccc(-c4ccccc4O)cc3)csc2[nH]c1=O [A769662] (first compound 5 µM, partner dose 10 µM) | 103
22 | COCC[n+]1c2c(n(Cc3cnccn3)c1C)C(=O)c1ccccc1C2=O + COc1ccc(COc2ccc(Cc3cnc(N)nc3N)cc2OC)cc1 [GW2580] (first compound 0.002 µM, partner dose 5 µM) | 108
23 | Cn1c(Nc2ccc(C(F)(F)F)cc2)nc2cc(Oc3ccnc(-c4ncc(C(F)(F)F)[nH]4)c3)ccc21 + Cc1cc(N2CCOCC2)cc2[nH]c(-c3c(NC[C@@H](O)c4cccc(Cl)c4)cc[nH]c3=O)nc12 [BMS536924] (first compound 0.4 µM, partner dose 1 µM) | 12.5
24 | COCC[n+]1c2c(n(Cc3cnccn3)c1C)C(=O)c1ccccc1C2=O + Oc1cc(-c2nc(-c3ccccc3)[nH]c2-c2ccncc2)ccc1Cl [L779450] (first compound 0.002 µM, partner dose 1 µM) | 8.94
25 | C#Cc1cccc(Nc2ncnc3cc(OCCOC)c(OCCOC)cc23)c1 [erlotinib] + O=C1NC(=O)/C(=C/c2ccc(-c3ccc(F)cc3O)o2)S1 [AS252424] (first compound 4 µM, partner dose 5 µM) | 87.7
26 | Cn1c(Nc2ccc(C(F)(F)F)cc2)nc2cc(Oc3ccnc(-c4ncc(C(F)(F)F)[nH]4)c3)ccc21 + NCC(=O)Nc1ccc(-n2nc(C(F)(F)F)cc2-c2ccc3c(ccc4ccccc43)c2)cc1 [OSU03012] (first compound 0.4 µM, partner dose 5 µM) | 21.8
27 | C#Cc1cccc(Nc2ncnc3cc(OCCOC)c(OCCOC)cc23)c1 [erlotinib] + COc1ccc2c(c1)CCC1C2CCC2(C)C(NCCCCCCN3C(=O)C=CC3=O)CCC12 [U73122] (first compound 4 µM, partner dose 2 µM) | 82.5
28 | Clc1ccc(Nc2nnc(Cc3ccncc3)c3ccccc23)cc1 [vatalanib] + OCCn1cc(-c2cnc3nnn(Cc4ccc5ncccc5c4)c3n2)cn1 [PF04217903] (first compound 10 µM, partner dose 5 µM) | 80.2
29 | Nc1cccc2c1CN(C1CCC(=O)NC1=O)C2=O (centres undefined) [lenalidomide] + COc1ccc(-c2ccc3c(N4CCOCC4)nc(N4C[C@@H](C)O[C@@H](C)C4)nc3n2)cc1CO [KU0063794] (first compound 5 µM, partner dose 0.1 µM) | 83.8
30 | O=C(CCCCCCC(=O)Nc1ccccc1)NO [vorinostat] + C[C@@H]1CCN(C(=O)CC#N)C[C@@H]1N(C)c1ncnc2[nH]ccc12 [CP690550] (first compound 0.4 µM, partner dose 5 µM) | 76.4
31 | COCC[n+]1c2c(n(Cc3cnccn3)c1C)C(=O)c1ccccc1C2=O + N#Cc1c(O)c2c(-c3ccc(-c4ccccc4O)cc3)csc2[nH]c1=O [A769662] (first compound 0.002 µM, partner dose 10 µM) | 49.7
32 | Nc1cccc2c1CN(C1CCC(=O)NC1=O)C2=O (centres undefined) [lenalidomide] + O=C(Nc1ccccc1)c1cc([N+](=O)[O-])ccc1Cl [GW9662] (first compound 5 µM, partner dose 10 µM) | 83.5
33 | O=C(CCCCCCC(=O)Nc1ccccc1)NO [vorinostat] + CC(C)CCN1c2nc(Nc3cc(F)c(O)c(F)c3)ncc2N(C)C(=O)C1C [BID1870] (first compound 0.4 µM, partner dose 1 µM) | 70.3
34 | OCc1c[nH]c2ccccc12 [Indole-3-carbinol] + COCC[n+]1c2c(n(Cc3cnccn3)c1C)C(=O)c1ccccc1C2=O [YM155] (first compound 4 µM, partner dose 0.002 µM) | 50.4
